Source: article PMC4336329 (PLoS ONE, 2015)
Hit rate of the full screen: of about 310,000 compounds, about 14,000 (4.5%) showed an effect of 50% or more. Effects have a minus sign here. This is one part of the list.

biological target: human ether-à-go-go-related gene (hERG) potassium channel (human, UniProt Q12809); assay: primary screen, population patch clamp on CHO cells stably expressing hERG
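Note: peak tail current of the secondary pulse compared with the same well before compound.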

Sequence of human ether-à-go-go-related gene (hERG) potassium channel (Q12809 whole entry, looked up): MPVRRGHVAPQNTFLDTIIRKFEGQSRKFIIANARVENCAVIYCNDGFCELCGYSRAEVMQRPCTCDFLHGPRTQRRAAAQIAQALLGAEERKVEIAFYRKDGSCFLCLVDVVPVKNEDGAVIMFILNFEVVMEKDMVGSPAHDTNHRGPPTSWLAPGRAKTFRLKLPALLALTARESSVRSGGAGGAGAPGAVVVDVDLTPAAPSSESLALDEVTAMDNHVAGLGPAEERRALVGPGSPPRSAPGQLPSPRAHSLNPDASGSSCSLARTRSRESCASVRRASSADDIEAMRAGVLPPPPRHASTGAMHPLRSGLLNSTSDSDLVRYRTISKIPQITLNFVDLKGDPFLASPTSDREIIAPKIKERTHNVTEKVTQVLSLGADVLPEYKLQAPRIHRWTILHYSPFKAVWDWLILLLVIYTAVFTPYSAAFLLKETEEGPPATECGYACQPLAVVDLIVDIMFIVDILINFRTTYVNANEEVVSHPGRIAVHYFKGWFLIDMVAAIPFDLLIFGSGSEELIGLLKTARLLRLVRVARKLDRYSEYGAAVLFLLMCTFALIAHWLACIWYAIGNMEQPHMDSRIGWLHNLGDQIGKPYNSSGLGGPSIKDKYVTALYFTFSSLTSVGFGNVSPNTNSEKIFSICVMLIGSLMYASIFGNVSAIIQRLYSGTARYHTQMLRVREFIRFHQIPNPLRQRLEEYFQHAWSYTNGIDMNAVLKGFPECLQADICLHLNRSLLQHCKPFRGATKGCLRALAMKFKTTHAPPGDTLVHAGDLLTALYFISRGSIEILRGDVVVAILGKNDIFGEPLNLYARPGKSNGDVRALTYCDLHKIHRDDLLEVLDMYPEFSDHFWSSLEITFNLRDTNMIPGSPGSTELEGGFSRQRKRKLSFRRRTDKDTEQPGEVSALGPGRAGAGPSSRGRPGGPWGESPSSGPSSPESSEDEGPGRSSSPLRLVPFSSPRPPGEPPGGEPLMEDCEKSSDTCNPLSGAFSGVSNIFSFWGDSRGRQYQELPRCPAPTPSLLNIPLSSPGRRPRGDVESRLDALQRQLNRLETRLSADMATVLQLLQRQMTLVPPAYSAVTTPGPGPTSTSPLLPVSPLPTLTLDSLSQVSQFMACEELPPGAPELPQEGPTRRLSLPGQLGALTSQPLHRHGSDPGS

Structure (SMILES)	hERG current change (%, negative = inhibition) at 10uM
CCOC(=O)C1=C(C)NC(=O)NC1c1ccc(F)cc1 (centres unmarked)	12.9%
Cc1c(C(=O)NNC(=O)c2ccncc2)oc2ccc(Br)cc12	-68.5%
Cn1c(=O)c([N+](=O)[O-])c(NCc2ccc3c(c2)OCO3)c2ccccc21	-27.4%
Nc1ncnc(Nc2cccc(Cl)c2Cl)n1	3.18%
O=C1NC(=O)C(CC(=O)N(Cc2ccco2)C2(C(=O)NC3CCCC3)CCCCC2)N1 (centres unmarked)	22.9%
CCCCC(=O)NC(c1ccc([N+](=O)[O-])cc1)c1c(O)ccc2ccccc12 (centres unmarked)	-12.9%
COc1cccc(NC(=O)c2ccccc2-c2ccccc2C(=O)O)c1	10.1%
Cc1cnc(NC(=O)c2ccc(-c3ccc([N+](=O)[O-])cc3)o2)s1	16.1%
O=C(Cn1cccc1C(=O)c1ccccc1)NCCN1CCCCCC1	-35.3%
Cl.N=c1ccn2c(n1)O[C@H]1[C@@H](CO)[C@H](O)O[C@H]12	14.8%
Cc1ccccc1NC(=O)C(NS(=O)(=O)c1ccc2c(c1)c(=O)n(C)c(=O)n2C)c1ccccc1 (centres unmarked)	-21.3%
CCNC(=O)CC1SC(=Nc2ccc(C)c([N+](=O)[O-])c2)N(C)C1=O (centres unmarked)	-2.45%
Cc1nnc(SCc2ccc(F)cc2Cl)s1	-10.3%
COC(=O)COc1ccc(-c2nccc(-c3ccccn3)n2)cc1	13.3%
Cl.O=C(NCCN1CCCCC1)c1c(O)c2ccccc2[nH]c1=O	-18.5%
CCCCc1nnc(NC(=O)c2ccc3c(=O)n4c(nc3c2)CCC4)s1	-15%
Cn1c(=O)c2c(nc(CN3CCC(C(N)=O)CC3)n2Cc2c(Cl)cccc2Cl)n(C)c1=O	-11.8%
Cn1cccc1C(=O)NC(=O)COC(=O)CC12CC3CC(CC(Br)(C3)C1)C2	5.79%
Cc1ccc(S(=O)(=O)N2CCN(c3nc(CN4CCCC4)nc4sc(C)c(C)c34)CC2)cc1	-77.7%
O=C(c1ccncc1)c1ccc(NS(=O)(=O)c2ccc(Br)s2)cc1	-10.7%
O=C(O)c1ccccc1NCc1cccs1	13.2%
O=C(COc1ccccc1F)N/N=C1\CCCc2ccccc21	11.4%

Structure (SMILES)	hERG current change (%, negative = inhibition) at 10uM
Cc1ccc(C(=O)N2CCN(S(=O)(=O)N3CCCCC3)CC2)cc1	7.35%
CC(=O)Nc1ccc(NC(=O)CSc2nc3ccccc3nc2N2CCC(C)CC2)cc1	8.95%
CC(C)(C)c1ccc(OCCC(=O)OCC(=O)N2c3ccccc3NC(=O)C2(C)C)cc1	-12.1%
CC(=O)Nc1ccc(NC(=O)CC2CCCC2)cc1	16.7%
COc1ccc(Cl)cc1NC(=O)NCCN1CCNC1=O	2.83%
O=C(NCCn1cc(SCc2ccccc2)c2ccccc21)c1ccccc1F	8.39%
COc1ccc(S(=O)(=O)Cc2ccc(C(=O)NCc3cccs3)o2)cc1	-29%
Cc1ccc(C)c(NC(=O)CSc2nnc(CCCCCNC(=O)OC(C)(C)C)o2)c1	-29.8%
CC(C)C(c1nnnn1CCc1ccccc1)N1CCOCC1 (centres unmarked)	-0.645%
Cc1ccc(C(=O)O)cc1N1C(=O)c2cccc3c([N+](=O)[O-])ccc(c23)C1=O	8.43%
c1ccc(CSc2nnc(NC3=NCCCCC3)s2)cc1	-18.1%
O=C(O)c1ccccc1C(=O)NC1CCN(c2nccc(C(F)(F)F)n2)CC1	9.16%
CCOC(=O)N1CCN(C(=O)Cn2ccc3c(OC)cccc3c2=O)CC1	6.78%
CCn1nnc(-c2ccc(N)cc2)n1	13.8%
CCOC(=O)c1cc2c(ccn2C)n1CC(=O)N(CC)CC	11.1%
Cl.N#C/C(=C\c1ccccc1)C(=O)NCCN1CCOCC1	15%
CN(C1CCS(=O)(=O)C1)S(=O)(=O)c1cccc2nsnc12 (centres unmarked)	-13.5%
CCOC(=O)C1CCN(S(=O)(=O)c2c(C)[nH]c(=O)[nH]c2=O)CC1	-0.439%
COc1ccc(C(=O)C[n+]2ccc3c(c2)nc(-c2ccc(OC)cc2OC)n3C)cc1.[Br-]	8.64%
COCCN(C(=O)CSc1nc2nc(C)cc(C)n2n1)c1c(N)n(Cc2ccccc2)c(=O)[nH]c1=O	38%
CC(C)OP(=O)(OC(C)C)C(Nc1ccc(C(=O)O)cc1)c1ccccc1 (centres unmarked)	16.1%
O=C1C(Cc2c[nH]c3ccccc23)NC(=S)N1C1CCCCC1 (centres unmarked)	-8.05%

Structure (SMILES)	hERG current change (%, negative = inhibition) at 10uM
CCOc1cccc(-c2nnc3sc(COc4ccc(Cl)cc4)nn23)c1	5.67%
COc1cc(C(=O)NC(C)c2ccc(S(N)(=O)=O)cc2)ccc1OCC(=O)N1CCOCC1 (centres unmarked)	12.1%
CS(=O)(=O)N(CC(=O)NCc1ccccc1Cl)C1CCCCC1	1.61%
O=C(O)/C=C/C(=O)Nc1ccc(Oc2ccc(NC(=O)/C=C/C(=O)O)cc2)cc1	-0.495%
CC(C)n1c(N2CCN(S(=O)(=O)c3cccc([N+](=O)[O-])c3)CC2)nc2ccccc21	-71%
COCCN(C(=O)COC(=O)CCCOc1ccccc1)c1c(N)n(Cc2ccccc2)c(=O)[nH]c1=O	-1.4%
COc1ccc(NC(=O)c2ccc(Br)c(S(=O)(=O)N3CCOCC3)c2)cc1	1.53%
COc1cc(C(C)=O)ccc1COc1ccc(C(=O)O)cc1OC	20.3%
O=C(NCc1ccc2c(c1)OCO2)Oc1ccccc1	-24.4%
Cc1cccc2cc(CN(C(=O)c3cccs3)c3ccccc3)c(=O)[nH]c12	9.62%
CCCCCn1c(=S)[nH]c2cc(C(=O)N3CCCC3)ccc2c1=O	8.43%
O=C1/C(=C/c2cccs2)CCC/C1=C\c1cccs1.O=S(=O)(O)O	15.3%
O=C(NC(=S)NCc1ccccc1)c1cccc([N+](=O)[O-])c1	-31.8%
O=C(N/N=C/c1cccs1)c1cc(C2CC2)nc2ccccc12	-10.6%
O=C(NC1CCCCCC1)c1ccc(CS(=O)Cc2ccccc2Cl)o1 (centres unmarked)	-31.1%
OCCC1CN(Cc2cc3c(cc2Cl)OCO3)CCN1Cc1ccccc1 (centres unmarked)	-45.3%
CN(C)c1ccc(/C=C2\N=C(C(C)(C)C)OC2=O)cc1	19.9%
O=C(OC(C(=O)Nc1cc(Cl)cc(Cl)c1)c1ccccc1)C1=COCCO1 (centres unmarked)	-2.43%
COc1ccc(-c2csc(NC(=O)CSCC(=O)Nc3cc(C)on3)n2)cc1	3.94%
O=C(CCCNC(=O)/C(=C/c1ccc(F)cc1)NC(=O)c1ccccc1)OCc1ccccc1	-64.3%
COc1ccc(Cl)cc1C(=O)NNC1CC(=O)N(Cc2ccc(Cl)cc2)C1=O (centres unmarked)	-27.8%
O=C(COC(=O)CCC1CCCC1)Nc1ccc(Cl)cn1	15.2%

Structure (SMILES)	hERG current change (%, negative = inhibition) at 10uM
CCOc1ccc(N=C2NC(=O)C(CC(=O)Nc3ccccc3)S2)cc1 (centres unmarked)	14.9%
CCOC(=O)CSc1nc2cc(C(=O)OC)ccc2c(=O)n1CCN1CCOCC1	-38.4%
COc1cccc(NC(=O)C(=O)NCCCn2ccnc2)c1	17.6%
COc1ccc(NC(=O)c2ccccc2NC(=O)c2ccccc2)cc1	28.5%
COC(=O)Cn1c(CN2CCC(Cc3ccccc3)CC2)nc2c1c(=O)n(C)c(=O)n2C	8.46%
CC(C)n1nc(C(=O)Nc2cccc(S(=O)(=O)N3CCCCC3)c2)c2ccccc2c1=O	-2.92%
Cc1csc(SCC(=O)O)n1	12%
CC(C)C(=O)Nc1ccc([N+](=O)[O-])c(C(F)(F)F)c1	-8.02%
CCN(CC)C(=O)C1CCCN(c2ccccc2[N+](=O)[O-])C1 (centres unmarked)	-1.67%
C=CCN(c1ccccc1)S(=O)(=O)c1cccc(C(=O)O)c1	16%
Cl.O=C(NC12CC3CC(CC(C3)C1)C2)OC1CN2CCC1CC2 (centres unmarked)	-20.6%
Cn1nc(CC(=O)NC2CCCCCCCCCCC2)c2ccccc2c1=O	-6.93%
CC(=O)OC1=CC[C@H]2[C@@H]3CC[C@H]4C[C@H](OC(C)=O)[C@@H](OC(C)=O)C[C@]4(C)[C@H]3CC[C@]12C	3.92%
Cc1cnc(CNC(=O)c2ccc3oc(Cc4ccccc4)nc3c2)[nH]1	5.13%
CC[C@@]12C(=O)N(c3ccc(OC)cc3)C(=O)N1[C@H](c1ccc(Cl)cc1)[C@@H]1C(=O)N(C3CCCCC3)C(=O)[C@@H]12	-2.13%
O=C(NC1CCCN(c2ccc(C(F)(F)F)cn2)C1)c1ccncc1 (centres unmarked)	-69.2%
CC(C)Oc1ccc(C(=O)NCC(=O)OCC(=O)N(C)Cc2cccs2)cc1	-15.9%
COC(=O)C(Cc1ccccc1)NC(=O)c1cc(=O)[nH]c2ccccc12 (centres unmarked)	17.6%
Oc1ccc(/C=N/n2cnn(Cc3ccccc3Cl)c2=S)c(O)c1	7.75%
O=S(=O)(NCc1ccco1)N1CCOCC1	15.1%
